# Assay results: the supplement of paper PMC3334620
# Over roughly 33,000 sequences, “E-score (-0.5 to 0.5)” has its median near -0.041; the highest 2% begin near 0.37. Some of the results follow.
# Biological target: T1, Ecm22 (UniProt Q05958)
# T1 sequence: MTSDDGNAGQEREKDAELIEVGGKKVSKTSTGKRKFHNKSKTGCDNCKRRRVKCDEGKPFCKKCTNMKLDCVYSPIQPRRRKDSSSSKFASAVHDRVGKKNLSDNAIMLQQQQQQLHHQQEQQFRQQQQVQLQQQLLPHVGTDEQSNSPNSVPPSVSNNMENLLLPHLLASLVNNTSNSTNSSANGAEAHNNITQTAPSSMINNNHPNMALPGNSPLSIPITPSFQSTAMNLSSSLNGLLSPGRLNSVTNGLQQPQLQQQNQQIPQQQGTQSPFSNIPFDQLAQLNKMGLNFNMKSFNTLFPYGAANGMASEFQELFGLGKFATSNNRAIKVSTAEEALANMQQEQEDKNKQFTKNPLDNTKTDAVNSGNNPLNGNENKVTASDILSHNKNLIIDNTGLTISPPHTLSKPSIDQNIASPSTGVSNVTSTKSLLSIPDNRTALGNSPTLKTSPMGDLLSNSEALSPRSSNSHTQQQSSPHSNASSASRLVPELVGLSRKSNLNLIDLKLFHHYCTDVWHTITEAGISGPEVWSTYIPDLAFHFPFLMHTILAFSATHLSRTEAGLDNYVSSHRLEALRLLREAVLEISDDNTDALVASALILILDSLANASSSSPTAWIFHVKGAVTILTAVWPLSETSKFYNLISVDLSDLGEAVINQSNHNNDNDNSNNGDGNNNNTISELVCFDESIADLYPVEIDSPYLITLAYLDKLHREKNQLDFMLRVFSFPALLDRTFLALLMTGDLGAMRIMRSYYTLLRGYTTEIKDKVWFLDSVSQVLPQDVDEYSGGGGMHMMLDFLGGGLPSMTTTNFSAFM
# Experiment: PBM E-score (8-mer binding enrichment) (E-score (-0.5 to 0.5)); higher = stronger / more preferred TF binding; most listed sequences are background and not binding sites
# Conditions: protein concentration: 200 nM; construct: GST-full length
# Experimental: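 Universal 'all 10-mer' protein binding microarrays (Agilent AMADID 015681) probed with GST-tagged S. cerevisiae TFs (full-length or DBD) made by in vitro transcription/translation (PURExpress), about 100-200 nM. Bound TF was detected with fluorescent anti-GST. Each ungapped 8-mer (which stands for itself and its reverse complement) is scored by the PBM enrichment score (E-score), a modified Wilcoxon-Mann-Whitney statistic from -0.5 to +0.5, computed with the Universal PBM Analysis Suite. Scale: above 0.35 generally sequence-specific binding.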
row,Sequence,PBM E-score
1,CCTTCTAC,-0.216
2,AAGACAAT,-0.15
3,AATGTACG,0.331
4,AGTATAGA,0.16
5,ACAGTTCC,-0.0566
6,CGCGGCCG,0.0345
7,GTGCTTCA,-0.049
8,CGTAGTGC,-0.115
9,CGAGAACA,0.236
10,GATATGCC,-0.108
11,CCGCACCA,-0.0313
12,CCGTGGTC,-0.121
13,GGAAGCCA,-0.347
14,CAGATAGA,-0.0618
15,CCGAGCAA,0.161
16,CCGGGAGA,-0.251
17,CCCCAGTA,-0.21
18,GTCTTAAC,-0.2
19,CAATTTAC,-0.0289
20,CCGAAACG,0.288
21,ATAGGCTC,-0.0784
22,CCAAGAGC,-0.244
23,GCCCACGC,-0.0186
24,ACGGGTGA,0.0822
25,CGTCTTCA,0.036

row,Sequence,PBM E-score
1,CATAATTC,-0.0931
2,AAATGTAC,0.129
3,ACGAGTCA,0.219
4,AGTGATCC,-0.0289
5,TAAACTAA,0.179
6,CGAAGAAA,0.194
7,GATCCACA,-0.13
8,AAATTCCG,0.162
9,TGCCGGAA,0.0207
10,GCTGTTTA,0.0148
11,ACACTATC,0.0198
12,GACGACTA,-0.121
13,TCACACCA,-0.0594
14,CCTCTCCA,-0.377
15,CAGAATGC,-0.288
16,AGCCGGTC,-0.124
17,TCAATGAA,0.0511
18,AGACATAG,-0.00453
19,AGCGGCTA,-0.112
20,ATTGCGCC,-0.0536
21,CGAACATA,0.164
22,CTATGTGA,-0.0746
23,AGGTTAGC,-0.23
24,AGAACACA,-0.102
25,CAGTCAAG,-0.215

row,Sequence,PBM E-score
1,TAGACCAA,-0.0485
2,GCACCTAC,-0.22
3,GGATCCCA,-0.245
4,CAGTGATG,0.0632
5,AAAAAATC,-0.121
6,CCGCTGAG,-0.201
7,GGGGGGAC,-0.239
8,ACTTGGAC,0.0207
9,ACCTTCTC,-0.116
10,ACCTGCCG,-0.0119
11,CCTCGTAG,0.41
12,GTACTTGA,0.162
13,CGCGGCAA,0.0294
14,ACTACATG,-0.00827
15,ATTTCATA,0.096
16,GTCAGGCA,-0.248
17,ACAAAGAG,-0.168
18,CAGTCGGC,-0.0234
19,ATCTACGG,0.0128
20,CGGATACG,0.386
21,AGCTCACT,-0.0849
22,CCAGCCAA,0.00593
23,AGTTCGTG,0.189
24,CGTTGCTA,0.255
25,CGTGTTGA,0.0153

row,Sequence,PBM E-score
1,CTTAACGA,0.432
2,AGCTATCG,0.0664
3,CTTGTACC,-0.0121
4,GCTTTCCC,-0.0311
5,CGGGTGTA,0.0956
6,TACAGCGA,0.0353
7,ATTCAATG,0.0511
8,AAATGGCT,-0.142
9,AAGGTTAC,-0.0361
10,ACTACTAC,0.0779
11,ATCGTCTC,-0.0584
12,TGCATGCA,-0.0613
13,AGCTCGTA,0.477
14,CGTGGCAC,-0.0347
15,GAATCCTC,0.0415
16,CCCAGCTC,-0.143
17,CAGAGTCC,-0.0964
18,CCCTAGCC,-0.104
19,ACGTACAA,0.298
20,CTTTAGGC,-0.0762
21,GCCCGGCA,-0.143
22,ATGGGAGG,-0.116
23,CTCAACGA,0.247
24,ATGACGCA,0.104
25,ACGGGTAC,0.322

row,Sequence,PBM E-score
1,CTATTACC,-0.00657
2,AAGTAGAG,-0.111
3,GGGCTGAC,-0.0438
4,TAAAATGA,0.0102
5,CCAGTGGC,-0.265
6,AAGGTCGG,-0.0761
7,AATAAGTG,-0.202
8,AGCTTCTA,-0.0747
9,CCCACTAA,-0.266
10,ACACATCT,-0.148
11,TACCAGAA,-0.0181
12,AGAAATGA,-0.114
13,ATGACCCC,-0.184
14,ACCGACTC,0.151
15,CGTTCGAC,0.144
16,CCGCCCTC,0.0333
17,GCACTAGC,-0.024
18,GACCAATA,0.00608
19,AGTGCCAT,-0.0805
20,GGCTGCTA,-0.0878
21,CCGTCGGA,0.0756
22,ACCATGCT,0.0187
23,CAAGTTTC,-0.0495
24,CTAGCTGC,-0.221
25,GACTGACC,-0.0963

row,Sequence,PBM E-score
1,ACCCACAA,0.105
2,AGAGCAGC,-0.0555
3,TCCATTCA,-0.0027
4,CAACTCGG,0.0345
5,ATACGTCA,0.182
6,AGCGGTCG,-0.0139
7,AAACTTGC,0.113
8,ATGTTCTA,-0.0632
9,ACCTCCCA,-0.194
10,AAGGCATT,-0.328
11,CCTTATTA,0.0274
12,CAGGACTC,-0.106
13,AAAGGTGT,-0.0768
14,AATTGACT,-0.272
15,ACCCACTC,-0.107
16,CCCCAGAG,-0.289
17,ACCAGCCA,-0.137
18,ATCGGCCA,-0.0721
19,CACGTACC,0.285
20,CGTGTCAC,0.0943
21,GACGACGC,0.145
22,CGGGCATC,0.0286
23,CGGAAGTA,0.0282
24,GATAATAA,-0.0253
25,CCCCACCG,0.0384

row,Sequence,PBM E-score
1,GATATTGC,-0.0449
2,AGGTGCCG,-0.0793
3,GCCGAAGC,-0.111
4,CCGTAGAG,0.189
5,ATGCCCAG,-0.397
6,CAGTAAGC,-0.0124
7,CGCTAAAC,0.294
8,GTTCACCA,0.0888
9,AATTCATC,-0.148
10,AATGAGCA,-0.253
11,AGCCCCAG,-0.153
12,CGTTCTTC,0.332
13,GCGAAGAC,0.101
14,GAAAACCC,-0.0576
15,ATGTCCAA,-0.0118
16,TATGCTCA,-0.129
17,TGCGTAAA,0.228
18,CCTTGCAA,-0.0998
19,GCTGTGAA,-0.0356
20,ACGGGAGA,0.0694
21,ATTCAAAC,0.13
22,ACAGGTTA,-0.161
